Assay [1] concerns the target T1, Myc–HKMT-tagged Atg13 (S. cerevisiae) (UniProt Q06628).
T1 sequence: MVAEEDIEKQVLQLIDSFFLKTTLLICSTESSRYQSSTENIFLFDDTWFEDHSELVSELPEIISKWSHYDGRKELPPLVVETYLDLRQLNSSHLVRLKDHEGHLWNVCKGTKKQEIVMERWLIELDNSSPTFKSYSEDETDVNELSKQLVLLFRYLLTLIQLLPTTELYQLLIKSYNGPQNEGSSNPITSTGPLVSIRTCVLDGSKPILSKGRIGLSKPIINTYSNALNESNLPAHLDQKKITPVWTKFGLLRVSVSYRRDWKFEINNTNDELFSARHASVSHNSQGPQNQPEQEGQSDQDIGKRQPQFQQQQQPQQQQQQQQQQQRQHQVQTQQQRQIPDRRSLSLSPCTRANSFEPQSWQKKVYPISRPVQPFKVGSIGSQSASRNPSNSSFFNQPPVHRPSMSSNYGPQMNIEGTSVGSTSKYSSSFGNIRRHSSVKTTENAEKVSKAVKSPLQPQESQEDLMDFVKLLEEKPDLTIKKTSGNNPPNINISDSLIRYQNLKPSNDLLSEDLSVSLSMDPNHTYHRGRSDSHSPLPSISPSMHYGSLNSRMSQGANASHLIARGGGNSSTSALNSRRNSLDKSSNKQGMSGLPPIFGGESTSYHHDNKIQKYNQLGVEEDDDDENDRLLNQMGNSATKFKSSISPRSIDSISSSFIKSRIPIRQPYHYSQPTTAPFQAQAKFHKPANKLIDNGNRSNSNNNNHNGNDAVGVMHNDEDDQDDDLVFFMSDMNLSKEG
Description: M-track (methylation tracking) in vivo protein proximity assay; in yeast cells; bait fused to Myc–HKMT (plasmid), prey Vac8–H3–HA (endogenous); 4 h 220 nM rapamycin; TCA extracts, anti-me3K9H3 western blot; Nvj1 tested in atg13Δ cells. A general note: A western blot detects proteins with antibodies after separation by electrophoresis.

Assay [2] deals with T2, Myc–HKMT-tagged Atg13ΔC (Atg13^1-520) (S. cerevisiae) (UniProt Q06628).
T2 sequence: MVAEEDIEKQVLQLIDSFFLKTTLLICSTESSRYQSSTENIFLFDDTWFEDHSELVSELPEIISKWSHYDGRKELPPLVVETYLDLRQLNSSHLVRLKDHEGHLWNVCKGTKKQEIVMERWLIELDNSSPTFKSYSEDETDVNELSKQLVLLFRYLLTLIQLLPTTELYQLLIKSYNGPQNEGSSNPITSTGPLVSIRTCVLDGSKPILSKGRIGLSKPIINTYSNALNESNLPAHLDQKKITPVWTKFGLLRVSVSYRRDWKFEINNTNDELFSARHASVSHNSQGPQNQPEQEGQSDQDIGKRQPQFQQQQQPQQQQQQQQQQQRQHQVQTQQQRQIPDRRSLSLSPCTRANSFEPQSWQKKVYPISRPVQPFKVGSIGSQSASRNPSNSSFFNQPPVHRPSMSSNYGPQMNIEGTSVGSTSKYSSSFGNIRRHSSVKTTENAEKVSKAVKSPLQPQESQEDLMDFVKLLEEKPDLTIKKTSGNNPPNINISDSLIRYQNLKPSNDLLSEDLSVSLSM
The assay is described as above.

For assay [3], the target named is T3, Myc–HKMT-tagged Nvj1 (S. cerevisiae) (UniProt P38881).
T3 sequence: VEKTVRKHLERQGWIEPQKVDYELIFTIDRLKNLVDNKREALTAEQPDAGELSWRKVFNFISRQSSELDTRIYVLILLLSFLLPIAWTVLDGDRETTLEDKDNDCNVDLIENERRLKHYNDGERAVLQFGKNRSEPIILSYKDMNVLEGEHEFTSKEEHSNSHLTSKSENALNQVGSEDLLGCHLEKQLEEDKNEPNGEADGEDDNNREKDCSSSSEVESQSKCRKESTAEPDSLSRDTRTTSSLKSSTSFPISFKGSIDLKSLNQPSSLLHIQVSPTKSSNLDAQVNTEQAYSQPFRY
The description is as above.

The target of assay [4] is T4, t-Atg13C–BFP [Atg19(152-191)-Atg13(567-738)-mTagBFP2] (S. cerevisiae) (UniProt P35193+Q06628).
T4 sequence: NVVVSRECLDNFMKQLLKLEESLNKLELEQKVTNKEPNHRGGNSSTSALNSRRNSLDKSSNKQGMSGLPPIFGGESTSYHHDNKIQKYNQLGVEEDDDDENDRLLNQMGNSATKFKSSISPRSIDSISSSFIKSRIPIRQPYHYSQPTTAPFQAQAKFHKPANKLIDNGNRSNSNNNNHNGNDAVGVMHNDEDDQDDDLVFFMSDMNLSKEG
Kind of assay: ectopic recruitment to Ape1-tethered t-Atg13C–BFP (live-cell fluorescence microscopy); Vph1–mCherry atg13Δatg19Δvac8Δ cells; t-Atg13C–BFP clustered on Ape1 oligomers; Vac8–GFP or Vac8ΔN–GFP signal read against BFP puncta and vacuoles; 1 h starvation in SD-N.

Assay [5] deals with T5, Vac8–GFP (S. cerevisiae) (UniProt P39968).
T5 sequence: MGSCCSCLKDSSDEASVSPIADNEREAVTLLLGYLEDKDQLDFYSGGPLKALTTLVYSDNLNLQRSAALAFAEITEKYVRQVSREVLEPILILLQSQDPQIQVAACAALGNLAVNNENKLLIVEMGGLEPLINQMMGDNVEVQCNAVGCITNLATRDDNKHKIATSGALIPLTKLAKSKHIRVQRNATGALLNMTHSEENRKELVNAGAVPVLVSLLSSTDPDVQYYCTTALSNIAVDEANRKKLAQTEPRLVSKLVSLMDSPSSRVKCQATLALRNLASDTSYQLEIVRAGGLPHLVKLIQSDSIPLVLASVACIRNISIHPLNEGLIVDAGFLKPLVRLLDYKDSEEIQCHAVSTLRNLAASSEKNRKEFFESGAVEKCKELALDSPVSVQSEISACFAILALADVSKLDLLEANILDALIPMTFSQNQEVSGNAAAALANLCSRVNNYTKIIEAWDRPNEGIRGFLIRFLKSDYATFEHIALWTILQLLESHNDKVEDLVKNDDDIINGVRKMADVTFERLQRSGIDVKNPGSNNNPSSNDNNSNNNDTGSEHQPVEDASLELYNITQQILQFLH
The description is as above.

No constants are given. Whether binding was seen depends on the method and setting. For some assays here: In cells and extracts the contact can be indirect. Some results given as binding are weak or reduced against the parent protein; the word gives no strength. Tags and fused reporters may be left off the sequences shown.

B1: Vac8–H3–HA (endogenously expressed H3–HA-tagged Vac8) (protein, UniProt P39968 1-578)
chain: T5 sequence
On to B1, for which the results for the binding result in assay [1], in assay [2] and in assay [3] were “binds”, “no binding” and “binds”, respectively.

B2: Vac8ΔN–GFP (Vac8^19-578-GFP) (domain or fragment, UniProt P39968 19-578)
chain: PIADNEREAVTLLLGYLEDKDQLDFYSGGPLKALTTLVYSDNLNLQRSAALAFAEITEKYVRQVSREVLEPILILLQSQDPQIQVAACAALGNLAVNNENKLLIVEMGGLEPLINQMMGDNVEVQCNAVGCITNLATRDDNKHKIATSGALIPLTKLAKSKHIRVQRNATGALLNMTHSEENRKELVNAGAVPVLVSLLSSTDPDVQYYCTTALSNIAVDEANRKKLAQTEPRLVSKLVSLMDSPSSRVKCQATLALRNLASDTSYQLEIVRAGGLPHLVKLIQSDSIPLVLASVACIRNISIHPLNEGLIVDAGFLKPLVRLLDYKDSEEIQCHAVSTLRNLAASSEKNRKEFFESGAVEKCKELALDSPVSVQSEISACFAILALADVSKLDLLEANILDALIPMTFSQNQEVSGNAAAALANLCSRVNNYTKIIEAWDRPNEGIRGFLIRFLKSDYATFEHIALWTILQLLESHNDKVEDLVKNDDDIINGVRKMADVTFERLQRSGIDVKNPGSNNNPSSNDNNSNNNDTGSEHQPVEDASLELYNITQQILQFLH
For B2, the binding entry in assay [4] is on record as “binds”.

B3: t-Atg13C–BFP [Atg19(152-191)-Atg13(567-738)-mTagBFP2] (protein, UniProt P35193 152-191; Q06628 567-738)
chain: T4 sequence
As to B3, the binding result in assay [5] was “binds”.

These data come from article PMC6899017.
